{
  "source": "patent US7105647",
  "about": "(WISCONSIN ALUMNI RESEARCH FOUNDATION, dated 2006)",
  "binders": {"B1": {"name": "MOP2 (other)", "chain": "MTADKEKKRSSSERRKEKSRDAARCRRSKETEVFYELAHELPLPHSVSSHLDKASIMRLAISFLRTHKLLSSVCSENESEAEADQQMDNLYLKALEGFIAVVTQDGDMIFLSENISKFMGLTQVELTGHSIFDFTHPCDHEEIRENLSLKNGSGFGKKSKDMSTERDFFMRMKCTVTNRGRTVNLKSATWKVLHCTGQVKVYNNCPPHNSLCGYKEPLLSCLIIMCEPIQHPSHMDIPLDSKTFLSRHSMDMKFTYCDDRITELIGYHPEELLGRSAYEFYHALDSENMTKSHQNLCTKGQVVSGQYRMLAKHGGYVWLETQGTVIYNPRNLQPQCIMCVNYVLSEIEKNDVVFSMDQTESLFKPHLMAMNSIFDSSGKGAVSEKSNFLFTKLKEEPEELAQLAPTPGDAIISLDFGNQNFEESSAYGKAILPPSQPWATELRSHSTQSEAGSLPAFTVPQAAAPGSTTPSATSSSSSCSTPNSPEDYYTSLDNDLKIEVIEKLFAMDTEAKDQCSTQTDFNELDLETLAPYIPMDGEGFQLSPICPEERLLAENPQSTPQHCFSAMTNIFQPLAPVAPHSPFLLDKFQQQLESKKTEPERRPMSSIFFDAGSKASLPPCCGQASTPLSSMGGRSNTQWPPDPPLHFGPTKWAVGDQRTEFLGAAPLGPPVSPPHVSTFKTRSAKGFGARGPNVLSPAMVALSNKLKLKRQLEYEKQAFQDPSGGDPPGGSTSHLMWKRMKNLRGGSCPLMPDKPLSANVPNDKLTQNSMRGLGHPLRHLPLPQPPSAISPGENSKSRFPPQCYATQYQDYSLSSAHKVSGMASRLLGPSFESYLLPELTRYDREVKVPVLGSSTLLQGGDLLRALDQAT", "notes": "Complete ORF, in vitro translated (PL447) or transfected; also called HIF2α; huMOP2"}, "B2": {"name": "AH receptor nuclear translocator (ARNT), full length (other, human, UniProt P27540 1-789, looked up)", "chain": "MAATTANPEMTSDVPSLGPAIASGNSGPGIQGGGAIVQRAIKRRPGLDFDDDGEGNSKFLRCDDDQMSNDKERFARSDDEQSSADKERLARENHSEIERRRRNKMTAYITELSDMVPTCSALARKPDKLTILRMAVSHMKSLRGTGNTSTDGSYKPSFLTDQELKHLILEAADGFLFIVSCETGRVVYVSDSVTPVLNQPQSEWFGSTLYDQVHPDDVDKLREQLSTSENALTGRILDLKTGTVKKEGQQSSMRMCMGSRRSFICRMRCGSSSVDPVSVNRLSFVRNRCRNGLGSVKDGEPHFVVVHCTGYIKAWPPAGVSLPDDDPEAGQGSKFCLVAIGRLQVTSSPNCTDMSNVCQPTEFISRHNIEGIFTFVDHRCVATVGYQPQELLGKNIVEFCHPEDQQLLRDSFQQVVKLKGQVLSVMFRFRSKNQEWLWMRTSSFTFQNPYSDEIEYIICTNTNVKNSSQEPRPTLSNTIQRPQLGPTANLPLEMGSGQLAPRQQQQQTELDMVPGRDGLASYNHSQVVQPVTTTGPEHSKPLEKSDGLFAQDRDPRFSEIYHNINADQSKGISSSTVPATQQLFSQGNTFPPTPRPAENFRNSGLAPPVTIVQPSASAGQMLAQISRHSNPTQGATPTWTPTTRSGFSAQQVATQATAKTRTSQFGVGSFQTPSSFSSMSLPGAPTASPGAAAYPSLTNRGSNFAPETGQTAGQFQTRTAEGVGVWPQWQGQQPHHRSSSSEQHVQQPPAQQPGQPEVFQEMLSMLGDQSNSYNNEEFPDLTMFPPFSE"}},
  "key": {"[1]": {"molecular_target": "B2", "test": "gel shift, heterodimer on TACGTG oligonucleotide"}, "[2]": {"molecular_target": "B2", "test": "yeast interaction trap (mating), X-Gal overlay", "protocol": "Interaction Screen Against Known bHLH-PAS Proteins. LexAbHLH-PAS fusion proteins (\"baits\") of HIF1α, HIF2α, MOP3, MOP4, AHR, ARNT, and CLOCK were transformed into the L40 strain of yeast. The full-length (\"fish\") MOP3 and ARNT plasmids were transformed into the AMR70 yeast strain, and these transformants were plated onto yeast complete media plates (Kaiser et al., 1994, in *Methods in Yeast Genetics*, Cold Spring Harbor Press, Plainview, N.Y.). The L40 yeast harboring the bait constructs were replica plated onto these yeast complete media plates and mated for 8 hr at 30° C. The plates were then replica plated onto selective media and grown for an additional day at 30° C. 5-Bromo-4-chloro-3-indolyl […]-galactoside (X-Gal) overlay assays were performed to determine the relative expression of the lacZ reporter gene (Bohen and Yamamoto, 1993, PNAS 90: 11424–11428). Western blot analysis, using LexA-specific sera, was performed on extract from each transformant to confirm expression of the fusion protein (see Example 1)."}, "[3]": {"molecular_target": "T1, human aryl hydrocarbon receptor (AHR), full length (human, UniProt P35869 1-848)", "T1 construct": "Full length in yeast (PRSAHR) and in the Hsp90 co-IP (huAHR); also called huAHR; Ah receptor", "T1 sequence (looked up)": "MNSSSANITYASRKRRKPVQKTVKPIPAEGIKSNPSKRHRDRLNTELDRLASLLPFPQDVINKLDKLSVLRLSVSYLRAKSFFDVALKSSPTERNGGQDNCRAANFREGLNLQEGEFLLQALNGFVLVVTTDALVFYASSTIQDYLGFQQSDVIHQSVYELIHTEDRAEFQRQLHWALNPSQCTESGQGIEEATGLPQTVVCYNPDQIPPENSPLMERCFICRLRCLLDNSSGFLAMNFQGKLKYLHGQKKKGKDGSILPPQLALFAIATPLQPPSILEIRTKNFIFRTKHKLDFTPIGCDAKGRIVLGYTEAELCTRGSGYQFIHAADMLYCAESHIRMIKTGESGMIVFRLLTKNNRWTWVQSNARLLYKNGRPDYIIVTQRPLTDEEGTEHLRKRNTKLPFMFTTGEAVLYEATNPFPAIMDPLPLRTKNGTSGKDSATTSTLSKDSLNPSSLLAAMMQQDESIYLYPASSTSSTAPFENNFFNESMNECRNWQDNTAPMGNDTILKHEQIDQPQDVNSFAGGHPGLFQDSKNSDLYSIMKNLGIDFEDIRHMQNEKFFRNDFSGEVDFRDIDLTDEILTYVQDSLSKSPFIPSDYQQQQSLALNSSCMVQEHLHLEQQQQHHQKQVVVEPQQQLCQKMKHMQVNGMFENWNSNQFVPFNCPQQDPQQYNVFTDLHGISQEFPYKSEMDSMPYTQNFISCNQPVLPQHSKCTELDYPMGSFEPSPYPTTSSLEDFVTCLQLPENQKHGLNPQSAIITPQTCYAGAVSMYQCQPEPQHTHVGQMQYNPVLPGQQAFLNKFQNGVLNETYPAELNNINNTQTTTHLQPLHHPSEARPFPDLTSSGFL", "test": "yeast two-hybrid, Galacto-Light lacZ assay, 1 µM βNF", "text": "(§1) This plasmid was designated PL371, and subsequently was digested with NotI and XhoI, this fragment cloned into the corresponding sites of pSGBCU11. This clone was designated PL574. The LexAMOP fusion protein constructs were cotransformed with a yeast expression vector containing the full length AHR or ARNT into L40, a yeast strain containing integrated lacZ and HIS3 reporter genes. As controls, LexAAHR and LexAARNT were cotransformed with AHR and ARNT. The strength of interaction was visually characterized by X-Gal (5-bromo-4-chloro-3-indolyl-(-D-galactoside) plate assays, performed after three days growth on selective media (Bohen et al, Proc. Natl. Acad. Sci. USA 90: 11424–11428, 1993). To provide quantitation of the interaction strength, multiple colonies from yeast harboring each bHLH-PAS combination colonies were grown overnight in liquid media. Liquid cultures were grown for 5 hours, and assayed for lacZ activity using the Galacto-Light chemiluminescence reporter system (Tropix, Bedford, Mass.). To determine the effect of AHR agonists on these interactions, yeast were also grown on plates or in liquid culture with and without 1 μM βNF (Carver et al., J. Biol. Chem. 269: 30109–30112, 1994).\n(§2) 2. Interaction of MOPs with the AHR and ARNT in vivo; Yeast two-hybrid experiments. […]"}, "[4]": {"molecular_target": "T1, human aryl hydrocarbon receptor (AHR), …", "test": "yeast two-hybrid, Galacto-Light lacZ assay, with vs without 1 µM βNF", "text": "as §1, §2"}, "[5]": {"molecular_target": "MOP1/HIF1α (human, UniProt Q16665 1-826)", "sequence (Q16665 whole entry)": "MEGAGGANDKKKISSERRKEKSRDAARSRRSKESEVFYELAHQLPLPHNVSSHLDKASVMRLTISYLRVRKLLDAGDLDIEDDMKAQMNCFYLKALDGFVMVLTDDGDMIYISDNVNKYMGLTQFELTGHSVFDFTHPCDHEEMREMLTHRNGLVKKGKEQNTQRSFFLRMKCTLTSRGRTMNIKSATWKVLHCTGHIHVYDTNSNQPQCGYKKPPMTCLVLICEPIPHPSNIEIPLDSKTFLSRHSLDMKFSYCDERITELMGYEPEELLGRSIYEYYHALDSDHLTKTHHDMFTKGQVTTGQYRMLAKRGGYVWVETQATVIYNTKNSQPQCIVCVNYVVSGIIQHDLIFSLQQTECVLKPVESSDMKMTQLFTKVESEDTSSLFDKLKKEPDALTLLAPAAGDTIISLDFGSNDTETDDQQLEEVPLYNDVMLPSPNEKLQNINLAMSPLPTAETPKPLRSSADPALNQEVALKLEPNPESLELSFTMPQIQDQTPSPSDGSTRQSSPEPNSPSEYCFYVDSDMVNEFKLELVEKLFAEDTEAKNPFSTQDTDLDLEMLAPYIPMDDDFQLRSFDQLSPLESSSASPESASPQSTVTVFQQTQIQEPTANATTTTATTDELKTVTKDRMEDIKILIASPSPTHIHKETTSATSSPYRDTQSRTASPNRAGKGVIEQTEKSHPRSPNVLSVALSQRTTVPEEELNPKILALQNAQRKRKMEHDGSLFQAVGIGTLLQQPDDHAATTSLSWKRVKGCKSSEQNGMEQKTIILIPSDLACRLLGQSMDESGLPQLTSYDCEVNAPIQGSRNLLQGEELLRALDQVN", "test": "cell-based or functional assay"}, "[6]": {"molecular_target": "B1", "test": "cell-based or functional assay"}, "[7]": {"molecular_target": "B2", "test": "cell-based or functional assay"}},
  "data": [
    {"binder": "B1", "values": [
      {"measurement": "binding result", "setting": "[1]", "result": "binds"}
    ]},
    {"binder": "LexAARNT (other, UniProt P0A7C2 1-202, looked up, range 1-202;domain: bHLH-PAS domains; Yeast two-hybrid bait; also called LexAbHLH-PAS fusion of ARNT; PL701) MKALTARQQEVFDLIRDHISQTGMPPTRAEIAQRLGFRSPNAAEEHLKALARKGVIEIVSGASRGIRLLQEEEEGLPLVGRVAAGEPLLAQQHIEGHYQVDPSLFKPNADFLLRVSGMSMKDIGIMDGDLLAVHKTQDVRNGQVVVARIDDEVTVKRLKKQGNKVELLPENSEFKPIVVDLRQQSFTIEGLAVGVIRNGDWLMAATTANPEMTSDVPSLGPAIASGNSGPGIQGGGAIVQRAIKRRPGLDFDDDGEGNSKFLRCDDDQMSNDKERFARSDDEQSSADKERLARENHSEIERRRRNKMTAYITELSDMVPTCSALARKPDKLTILRMAVSHMKSLRGTGNTSTDGSYKPSFLTDQELKHLILEAADGFLFIVSCETGRVVYVSDSVTPVLNQPQSEWFGSTLYDQVHPDDVDKLREQLSTSENALTGRILDLKTGTVKKEGQQSSMRMCMGSRRSFICRMRCGSSSVDPVSVNRLSFVRNRCRNGLGSVKDGEPHFVVVHCTGYIKAWPPAGVSLPDDDPEAGQGSKFCLVAIGRLQVTSSPNCTDMSNVCQPTEFISRHNIEGIFTFVDHRCVATVGYQPQELLGKNIVEFCHPEDQQLLRDSFQQVVKLKGQVLSVMFRFRSKNQEWLWMRTSSFTFQNPYSDEIEYIICTNTNVKNSSQEPRPT", "values": [
      {"measurement": "binding result", "setting": "[2]", "result": "no binding"},
      {"measurement": "fold above background (lacZ reporter activity)", "setting": "[3]", "result": 14, "unit": "fold"},
      {"measurement": "fold over the same pair in the absence of ligand", "setting": "[4]", "result": 2, "unit": "fold"}
    ]},
    {"binder": "B2", "values": [
      {"measurement": "luciferase reporter with six copies of the M13 element, COS-1 cells", "setting": "[5]", "result": 14.1, "unit": "fold"},
      {"measurement": "luciferase reporter with six copies of the M13 element, COS-1 cells", "setting": "[6]", "result": 8.1, "unit": "fold"}
    ]},
    {"binder": "mouse MOP7 (other) MDWDQDRSNTELRKEKSRDAARSRRSQETEVLYQLAHTLPFARGVSAHLDKASIMRLTISYLRMHRLCAAGEWNQVEKGGEPLDACYLKALEGFVMVLTAEGDMAYLSENVSKHLGLSQLELIGHSIFDFIHPCDQEELQDALTPRPNLSKKKLEAPTERHFSLRMKSTLTSRGRTLNLKAATWKVLHCSGHMRAYKPPAQTSPAGSPRSEPPLQCLVLICEAIPHPASLEPPLGRGAFLSRHSLDMKFTYCDERIAEVAGYSPDDLIGCSAYEYIHALDSDAVSRSIHTLLSKGQAVTGQYRFLARTGGYLWTQTQATVVSGGRGPQSESIICVHFLISRVEETGVVLSLEQTEQHTRRPPRLSASSQKGIPGNSVDSPAPRILAFLHPPALSEASLAADPRRFCSPDLRRLMAPILDGPPPAATPSTPQATRRPQSPLPADLPDKLAVGLENAHRLSTAQKNKTVETDLDIAQDSDTLDLEMLAPYISMDDDFQLNSSEQLPKVHRRPPRVARRPRARSFHGLSPPIPEPSLLPRWGSDPRLNCSSPSRGDRPTASLMPGTRKRALAQSSEDKGLELLEIKPPKRSPRLEPGSFLLPPLSLSFLLQGRQLLGNQQDPRAPLVHSHEPLGLAPSLLSLCQHEETVQPRNHFPPAAGLGQTH", "values": [
      {"measurement": "luciferase reporter driven by six HRE enhancer elements, COS-1 cells", "setting": "[7]", "result": 11.7, "unit": "fold"}
    ]}
  ]
}
